Experimental data from PubChem BioAssay AID1963576 (National Center for Advancing Translational Sciences (NCATS), 2024).
In all, about 46,000 compounds went through this assay and about 60 (0.1%) were called active. Roughly 3% stayed inconclusive and do not appear here. The call rests on the fitted dose curve; in most records, active means well fitted inhibition curve with a large enough effect; inconclusive means small, poorly fitted or top-dose-only effect; inactive means no such curve, though single readings can be large or run the other way. The list shows a part of the results.

Experiment: Primary qHTS assay for Inhibitors of ovarian cancer metastasis using an organotypic tumor microenvironment (TME) model. Further: nearly all actives have a fitted effect of over 65% in size.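 On activity change, negative = inhibition: plate controls were DMSO wells for no effect and tomatine positive control wells for full effect.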
Conditions: SKOV3ip1-GFP adhesion/invasion on 3D omental model, fluorescence; series mostly up to 45.8 µM; activity change, negative = inhibition: at the top concentration
Summary of the method: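 Primary human omental fibroblast/mesothelial 3D culture pre-formed 48 h. SKOV3ip1-GFP cells added with compounds (0.36-46 umol/L), incubated 2 h RT/16 h 37 C, fixed; GFP cells quantified at 488/509 nm.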

Activity change, negative = inhibition, inactive:
C=CCc1ccccc1OCc1nc2ccccc2n1CC 0.782%
COc1ccc(S(=O)(=O)c2c(O)c3ccc(C(=O)NCc4ccc(Cl)cc4)cc3[nH]c2=O)cc1 15.8%
CCOC(=O)C1CCN(C(=O)Cn2ncc3c4ccccc4n(Cc4ccc(F)cc4)c3c2=O)CC1 0.041%
Cc1cc(NC(=O)CSc2ncc(C(=O)Nc3ccc(Cl)cc3)c(=O)n2C)no1 3.88%
Cc1ccc(NC(=O)CN2C(=O)COc3ccc(S(=O)(=O)NC4CCCC4)cc32)cc1Cl 0.302%
CC(C)(C)C(=O)Cn1c(=O)n(-c2ccccc2)c(=O)c2c3c(sc21)CCC3 -9.63%
Cn1c2ccccc2c2cnn(CC(=O)N3CCN(c4cccc(C(F)(F)F)c4)CC3)c(=O)c21 -1.12%
CCC(CC)C(=O)Nc1ccc2nc(SCC(=O)N3CCc4ccccc43)sc2c1 -1.39%
Cc1ccc(CNC(=O)CN(c2cccc(C)c2C)S(=O)(=O)c2ccccc2)cc1 -9.01%
CC1=C(C(N)=O)C(c2ccc(F)cc2)n2nc(-c3ccccc3Cl)nc2N1 (stereo not given) 0.984%
COc1ccc(CC(=O)NCc2ccc3c(c2)CCN3C(C)=O)cc1 0.362%
COc1ccc(-c2nc(SCC(=O)Nc3ccc4c(c3)OCCO4)c(-c3ccc(F)cc3)[nH]2)cc1OC 13.5%
O=C(OCc1cc(=O)n2nc(C3CCCCC3)sc2n1)c1ccccc1Cl 3.82%
COc1cccc(-c2nnc(SCC(=O)N3CCC(C)CC3)o2)c1 -13.4%
CC(C)CC(=O)n1nc(-c2cccnc2)nc1NCc1ccc(F)cc1 -3.32%
COc1ccc(OCC(=O)OCc2cc(=O)n3nc(-c4cccs4)sc3n2)cc1 -20.8%
Cc1cc(C)n(-c2nc3ccccc3nc2Nc2ccc(Cl)c(C(=O)OC(C)C)c2)n1 4.14%
Cc1cc(C)cc(NC(=O)CSc2oc(-c3ccccc3)nc2S(=O)(=O)c2ccccc2)c1 -1.9%
CCc1ccc(O)c(C(=O)c2cnc3cc(-c4ccc(C)cc4)nn3c2)c1 1.07%
N#Cc1c(C(F)(F)F)cc(-c2cccs2)nc1SCC(=O)Nc1ccccc1F 3.13%
Cc1ccc(CCNC(=O)CCCn2c(=O)c3ccccc3n(Cc3ccccc3C#N)c2=O)cc1 -7.07%
Cc1ccc(Cl)cc1NC(=O)Cn1c(=O)n(Cc2ccccc2)c(=O)c2oc3ccccc3c21 1.51%
CCn1cc(S(=O)(=O)c2ccccc2)c(=O)c2cc(F)c(N3CCCC3)cc21 11.2%
O=C1Cc2cc(CCN3CCN(c4nsc5ccccc45)CC3)c(Cl)cc2N1 -1.19%
O=C(c1cc(-c2ccccc2O)on1)N1CCCCC1 -11.9%
COc1cc(OC)c(OC)cc1/C=C/c1nc2cc3ccccc3cc2c(=O)n1-c1ccc(F)c(Cl)c1 -1.56%
Cc1cc2nc(-c3cccc(NC(=O)C(C)C)c3C)oc2cc1C -2.1%
CCN[C@H]1C[C@H](C)S(=O)(=O)c2sc(S(N)(=O)=O)cc21 2.24%
CCN(CC)C(=O)c1sc2c(c1C)c(=O)n(CCc1ccccc1)c(=O)n2Cc1ccc(F)cc1Cl 13.5%
COc1ccccc1NC(=O)c1c(NC(=O)COc2ccccc2)sc2c1CCCCC2 -2.53%
CNC(=O)C1CCC(Cn2c(=O)c3sccc3n(CC(=O)NCc3ccc(OC)cc3)c2=O)CC1 (stereo not given) -3%
O=C(Cn1c(=O)n(-c2cccc(Cl)c2)c(=O)c2sc3ccccc3c21)NC1CCCCC1 -9.54%
Cc1ccc(OCC(=O)Nc2cccc(-c3nc4ccccc4o3)c2C)cc1C 9.54%
Clc1ccc(CN2CCC(CNc3ncnc4onc(-c5ccc(Cl)cc5)c34)CC2)cc1 18.8%
COC(=O)c1cccc(Nc2c(-c3ccc(SC)cc3)nc3nc[nH]n23)c1 -9.48%
Cc1ccc(-n2ncc(C(=O)NCCc3ccsc3)c2C2CCN(C(=O)OC(C)(C)C)CC2)c(C)c1 -8.91%
Cc1cccc(S(=O)(=O)c2cn(Cc3ccc(F)cc3)c3cc(N4CCCCC4)c(F)cc3c2=O)c1 2.66%
COc1ccc(Cl)cc1NC(=O)CN(c1cccc(C)c1C)S(C)(=O)=O -1.06%
COC(=O)[C@@H]1[C@H]2C[C@@H]3c4[nH]c5ccccc5c4CCN3C[C@@H]2CC[C@@H]1O 5.41%
O=C(CSc1nc2c([nH]c3ccccc32)c(=O)n1-c1ccc(Cl)cc1)NCc1ccccc1 9.92%
CCn1c(=O)c(=O)n(CC)c2cc(N3CCCCC3)c(NC(=O)c3ccc(OC)c(OC)c3)cc21 2.9%
COc1cc(C(=O)Nc2sc3c(c2C(N)=O)CCC(C)C3)cc(OC)c1OC (stereo not given) -7%
CCc1ccccc1NC(=O)c1cc(-c2ccc(OC)cc2)on1 9.37%
CN1CCN(C(CNC(=O)C(=O)Nc2ccccc2C#N)c2ccc3c(c2)OCO3)CC1 (stereo not given) 9.1%
CC1=C(C(=O)Nc2cc(Cl)ccc2C)C(c2ccccc2F)n2ncnc2N1 (stereo not given) 9.92%
CCc1ccc(S(=O)(=O)NCc2cccn2Cc2cccc(C)c2)cc1 0.566%
Cc1ccc(-n2nc(C(=O)N3CCCCC3)c(=O)n(C)c2=O)cc1 11.6%
CCCN(CCC)CCNC(=O)CS(=O)Cc1nc(-c2ccc(OC)c(OC)c2)oc1C (stereo not given) -2.23%
COC(=O)c1ccc(NC(=O)CC2C(=O)N(c3cccc(F)c3)C(=O)N2CC(C)C)cc1 (stereo not given) 12.9%
CCCNC(=O)C1CCC(Cn2c(=O)c3sccc3n(CC(=O)N(CC)CC)c2=O)CC1 (stereo not given) -13.1%
CNc1ccc(-c2nc(-c3ccccn3)no2)cc1[N+](=O)[O-] -15.7%
Cc1ccc(CNC(=O)c2cc3cc(C)ccc3n2C)cc1 -0.574%
COc1ccc(-n2c(=O)c3ccc(C(=O)NCc4ccc(C)cc4)cc3n(CC(=O)Nc3cccc(F)c3)c2=O)cc1 -0.836%
COCCCNC(=O)Cn1c(=O)n(-c2ccccc2)c(=O)c2c1c1cc(OC)ccc1n2C 2.6%
CCOC(=O)c1cc(NC(=O)c2ccc(C)cc2)c(=O)n2c1oc1ccccc12 33.8%
CCOc1ccc(C2c3[nH]c4ccccc4c3CCN2C(=O)CSc2ccccc2)cc1 (stereo not given) -8.38%
CCc1c(CN2CCN(c3ccc(F)cc3)CC2)csc1C -9.65%
COc1ccc(NC(=O)c2sc3nc(C)c(C(=O)Nc4ccc(C)cc4C)c(-c4sccc4C)c3c2N)cc1 2.25%
CC(=O)Nc1ccc2nc(SCCOc3ccc(C)cc3)sc2c1 7.45%
COc1ccc(Nc2ncnc3scc(-c4ccc(F)cc4)c23)cc1 -8.07%
COCCNc1nc2c(S(=O)(=O)c3ccccc3)nnn2c2ccc(Cl)cc12 2.77%
O=C(COc1ccc(Cl)cc1)NCCc1csc(-c2ccc(C(F)(F)F)cc2)n1 3.66%
COc1cc2c(cc1NC(=O)COc1cc(C)cc(C)c1)oc1ccccc12 15.2%

outcome, inactive:
Cc1csc2nc(COc3ccc(NC(=O)COc4ccccc4)cc3)cc(=O)n12
CC(=O)c1cccc(NC(=O)C2CCCN(C(=O)c3cnn(-c4ccccc4)c3-n3cccc3)C2)c1 (stereo not given)
Cc1cccc(N2CCN(S(=O)(=O)c3cc(Cl)ccc3Cl)CC2)c1C
CCOc1ccc(C(=O)Nc2cccc(NC(=O)c3ccc(C(C)(C)C)cc3)c2)cc1Br
CCCCNc1ccc(-c2nc(-c3ccco3)no2)cc1[N+](=O)[O-]
CCOC(=O)c1c(-c2ccc(C)cc2)csc1NC(=O)c1cc(-c2ccc(C)c(F)c2)on1
O=C(c1ccc2c(c1)N(Cc1ccc(F)cc1)C(=O)c1ccccc1S2(=O)=O)N1CCN(Cc2ccccc2)CC1
COCCCNC(=O)c1ccc(-n2c(-c3ccccc3)cc3c2CCCC3)cc1
Cc1ccc(NC(=O)CCCn2c(=O)c3cccn3c3ccccc32)cc1C
Cc1ccc(OCC(=O)Nc2cccc(OCc3cc(=O)n4cccc(C)c4n3)c2)cc1C
Cc1ccc(CNC(=O)CCc2c(C)nc3nc(C)nn3c2C)cc1
CCn1cc2c(n1)-c1c(oc(C(=O)Nc3cccc(C)c3C)c1C)CC2
Cc1cc(C)cc(NS(=O)(=O)c2ccc3[nH]cc(C(=O)NC4CCCCC4)c(=O)c3c2)c1
CCOc1ccc(-c2cc(C(=O)NCc3ccccc3Cl)c3ccccc3n2)cc1
CCc1c(C)nc(SCc2nc(-c3ccccc3)no2)[nH]c1=O
CCOc1ccc(C(=O)Nc2ccc3nn(-c4ccc(OC)c(Cl)c4)nc3c2)cc1
O=C(c1ccc2c(c1)N(Cc1ccccc1F)C(=O)c1ccccc1S2(=O)=O)N1CCN(c2ccccc2F)CC1
COc1ccc2cc(-c3nc(Cl)c4c5c(sc4n3)CC(C)CC5)c(=O)oc2c1 (stereo not given)
O=C(CSCc1ccc(F)cc1)N1CCN(c2ccc(Cl)cc2)CC1
CCc1ccc(C2N=C(N)Nc3nc4ccccc4n32)cc1 (stereo not given)
Cc1cccc(N2CCN(c3ncnc4onc(C)c34)CC2)c1C
O=C(NCc1cccc(Cl)c1)c1cnc(N2CCCCC2)c2ccccc12
COc1ccc(CCNC(=O)Cn2c(=O)c3sccc3n(CC(=O)Nc3cccc(C(F)(F)F)c3)c2=O)cc1OC
O=C(CCCCCn1c(=O)[nH]c2ccccc2c1=O)NCCc1ccccc1
CCc1ccc(CNC(=O)CN2C(=O)CSc3ccc(S(=O)(=O)N4CCOCC4)cc32)cc1
Cc1ccc2sc(N(CCCN(C)C)C(=O)c3ccco3)nc2c1C
COc1ccc(CCNC(=O)CSc2cc(=O)n(C)c3ccccc23)cc1OC
COc1ccc(NC(=O)Cn2nnnc2-c2ccccc2F)c(C)c1
CN(Cc1ccccc1)C(=O)C(=O)Nc1ccc2nc3n(c(=O)c2c1)CCCCC3
COc1cccc(C(=O)Nc2nc3c(s2)CCCC3)c1
COc1ccc(CN2C(=O)N(c3cccc(C)c3)C(=O)C2CC(=O)Nc2ccc(F)cc2)cc1OC (stereo not given)
Cc1ccc(CN2CCC(CNC(=O)Nc3ccccc3F)CC2)cc1
